Results taken from the supplement of paper PMC4967469.
IC50 is the fitted dose that halves viability relative to control wells, and lower means more sensitive; where the fit passes the top or lowest dose, that dose stands as a limit. AUC is the area under the same curve over the 256-fold range up to the top dose, as a fraction: 1 means no effect, lower means more sensitive. For some assays here: A top dose marked as inferred comes from the curve model; the source does not state it.

How the values were obtained:
Assay in all cases: Viability of human cancer cell lines after 72 h of drug (GDSC screen)
JW-7-52-1 = compound: CCC(=O)N1CCN(c2ccc(-n3c(=O)ccc4cnc5ccc(-c6cnc7ccccc7c6)cc5c43)cc2C(F)(F)F)CC1 [JW-7-52-1]; conditions: top dose 1.2 µM; top dose inferred
Experimental: (§1)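 Human cancer cell lines in 384-well plates, medium with 10% serum, drug for 72 h over a 256-fold dose range (nine 2-fold or five 4-fold steps up to the top dose). Adherent lines were fixed and stained with the nucleic acid dye Syto60, suspension lines read with resazurin; signal relative to control wells, capped at 0 and 100%. One two-parameter sigmoid per drug and line, fitted in a mixed model over all curves with the slope shared within a line.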

Tubastatin A = compound: CN1CCc2c(c3ccccc3n2Cc2ccc(C(=O)NO)cc2)C1 [Tubastatin A]; conditions: top dose 20 µM
Experimental: as §1

ZG-10 = compound: CN(C)C/C=C/C(=O)Nc1ccc(C(=O)Nc2cccc(Nc3nccc(-c4cccnc4)n3)c2)cc1 [ZG-10]; conditions: top dose 10 µM; top dose inferred
Experimental: as §1

XL-880 = compound: COc1cc2c(Oc3ccc(NC(=O)C4(C(=O)Nc5ccc(F)cc5)CC4)cc3F)ccnc2cc1OCCCN1CCOCC1 [XL-880]; conditions: top dose 5.12 µM; top dose inferred
Experimental: as §1

Z-LLNle-CHO = compound: CCCC[C@@H](C=O)NC(=O)[C@H](CC(C)C)NC(=O)[C@H](CC(C)C)NC(=O)OCc1ccccc1 [Z-LLNle-CHO]; conditions: top dose 2.56 µM; top dose inferred
Experimental: as §1

IPA-3 = compound: Oc1ccc2ccccc2c1SSc1c(O)ccc2ccccc12 [IPA-3]; conditions: top dose 32 µM; top dose inferred
Experimental: as §1

Temozolomide = compound: Cn1nnc2c(C(N)=O)ncn2c1=O [Temozolomide]; conditions: top dose 30 µM
Experimental: as §1

CI-1040 = compound: O=C(NOCC1CC1)c1ccc(F)c(F)c1Nc1ccc(I)cc1Cl [CI-1040]; conditions: top dose 10 µM; top dose inferred
Experimental: as §1

Rapamycin = compound: CO[C@H]1C[C@@H]2CC[C@@H](C)[C@@](O)(O2)C(=O)C(=O)N2CCCC[C@H]2C(=O)O[C@H]([C@H](C)C[C@@H]2CC[C@@H](O)[C@H](OC)C2)CC(=O)[C@H](C)/C=C(\C)[C@@H](O)[C@@H](OC)C(=O)[C@H](C)C[C@H](C)/C=C/C=C/C=C/1C [Rapamycin]; conditions: top dose 0.1 µM; top dose inferred
Experimental: as §1

Cell Line	AUC (JW-7-52-1)	IC50 (JW-7-52-1)	AUC (Tubastatin A)	IC50 (Tubastatin A)	AUC (ZG-10)	IC50 (ZG-10)	AUC (XL-880)	IC50 (XL-880)	AUC (Z-LLNle-CHO)	IC50 (Z-LLNle-CHO)	AUC (IPA-3)	IC50 (IPA-3)	AUC (Temozolomide)	IC50 (Temozolomide)	AUC (CI-1040)	IC50 (CI-1040)	AUC (Rapamycin)	IC50 (Rapamycin)
SW684 (fibrosarcoma, adherent)	0.925	> 1200 nM	0.982	> 20000 nM	0.846	> 10000 nM	0.983	> 5120 nM	0.981	> 2560 nM	0.846	> 32000 nM	0.98	> 30000 nM	0.964	> 10000 nM	–	–
VAL (B-cell lymphoma, suspension)	–	–	0.722	5340 nM	0.777	4040 nM	0.52	362 nM	–	–	0.776	12800 nM	0.984	> 30000 nM	0.961	> 10000 nM	0.916	> 100 nM
A101D (melanoma, adherent)	0.332	22.8 nM	0.973	> 20000 nM	0.689	2410 nM	0.653	943 nM	0.615	356 nM	0.834	27900 nM	0.938	> 30000 nM	0.517	704 nM	–	–
VA-ES-BJ (soft tissue, adherent)	–	–	0.973	> 20000 nM	0.72	2740 nM	0.682	1060 nM	0.725	728 nM	0.863	30400 nM	0.98	> 30000 nM	0.838	7310 nM	0.233	0.998 nM
EW-11 (Ewing sarcoma, adherent)	0.92	> 1200 nM	0.814	15100 nM	0.721	3220 nM	0.506	335 nM	0.978	> 2560 nM	0.867	> 32000 nM	0.978	> 30000 nM	0.905	> 10000 nM	–	–
TGBC24TKB (biliary tract, adherent)	–	–	0.984	> 20000 nM	–	–	0.663	876 nM	0.976	> 2560 nM	0.99	> 32000 nM	0.989	> 30000 nM	–	–	0.443	4.42 nM
KGN (ovary, adherent)	0.211	8.54 nM	0.909	> 20000 nM	0.723	3120 nM	0.357	117 nM	0.763	1110 nM	0.707	8820 nM	0.978	> 30000 nM	0.843	9440 nM	–	–
WIL2-NS (lymphoid neoplasm, suspension)	0.421	47.6 nM	0.868	12800 nM	0.753	2790 nM	0.641	725 nM	0.794	941 nM	0.569	2970 nM	0.925	> 30000 nM	0.982	> 10000 nM	–	–
OS-RC-2 (kidney, adherent)	0.286	13.9 nM	0.701	6000 nM	0.771	5660 nM	0.608	722 nM	0.859	> 2560 nM	0.935	> 32000 nM	0.975	> 30000 nM	0.782	6310 nM	–	–
TE-8 (oesophagus, adherent)	0.41	41.7 nM	0.985	> 20000 nM	0.678	2040 nM	0.58	537 nM	0.669	490 nM	0.873	> 32000 nM	0.982	> 30000 nM	0.822	6380 nM	–	–
TC-71 (Ewing sarcoma, adherent)	–	–	0.959	> 20000 nM	0.586	1030 nM	0.629	679 nM	0.974	> 2560 nM	0.992	> 32000 nM	0.992	> 30000 nM	–	–	0.992	> 100 nM
Farage (B-cell lymphoma, suspension)	0.499	74.6 nM	0.943	> 20000 nM	0.842	5260 nM	0.583	517 nM	0.745	687 nM	0.511	2130 nM	0.99	> 30000 nM	0.851	5650 nM	–	–
KALS-1 (glioma, adherent)	–	–	0.941	> 20000 nM	–	–	0.703	1490 nM	0.714	822 nM	0.962	> 32000 nM	0.962	> 30000 nM	–	–	0.432	3.8 nM
U-87-MG (glioma, adherent)	–	–	0.973	> 20000 nM	–	–	–	–	0.968	> 2560 nM	0.951	> 32000 nM	–	–	0.861	> 10000 nM	0.88	> 100 nM
KYM-1 (rhabdomyosarcoma, adherent)	–	–	0.989	> 20000 nM	–	–	0.889	4360 nM	–	–	0.773	10700 nM	0.987	> 30000 nM	0.901	9700 nM	0.202	0.979 nM
TE-15 (oesophagus, suspension)	–	–	0.972	> 20000 nM	–	–	0.733	1630 nM	0.791	1320 nM	0.75	11600 nM	0.963	> 30000 nM	0.756	3840 nM	0.326	1.91 nM
BB65-RCC (kidney, adherent)	0.317	21.3 nM	0.98	> 20000 nM	0.714	2800 nM	0.692	1210 nM	0.757	1000 nM	0.728	9960 nM	0.98	> 30000 nM	0.667	1960 nM	–	–
HCC1500 (breast, adherent)	–	–	0.953	> 20000 nM	–	–	0.919	> 5120 nM	–	–	0.952	> 32000 nM	0.985	> 30000 nM	0.939	> 10000 nM	0.943	> 100 nM
